From PubChem BioAssay AID1963576 (National Center for Advancing Translational Sciences (NCATS), 2024)
The campaign covered roughly 46,000 compounds. About 60 (0.1%) were called active. Inconclusive results (about 3%) are left out. Calls follow the shape of the dose curve; as a rule, active = well fitted inhibition curve with a large enough effect; inconclusive = small, poorly fitted or top-dose-only effect; inactive = no such curve, though single readings can be large or run the other way. This is one part of the list. Residues, ends and D or L forms follow the SMILES beside them.

Test: Primary qHTS assay for Inhibitors of ovarian cancer metastasis using an organotypic tumor microenvironment (TME) model. Also: nearly all actives have a fitted effect of over 65% in size.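 As to activity change, negative = inhibition: plate controls were DMSO wells for no effect and tomatine positive control wells for full effect.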
Settings: SKOV3ip1-GFP adhesion/invasion on 3D omental model, fluorescence; series mostly up to 45.8 µM; activity change, negative = inhibition: at the top concentration
How it was run: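 Primary human omental fibroblast/mesothelial 3D culture pre-formed 48 h. SKOV3ip1-GFP cells added with compounds (0.36-46 umol/L), incubated 2 h RT/16 h 37 C, fixed; GFP cells quantified at 488/509 nm.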

outcome, inactive:
COc1ccccc1-c1cc(C(=O)NCCc2ccccc2)no1
CC(C)c1cnc2c(c1SCC(=O)O)c(=O)n(C)c(=O)n2C
O=C(CNC(=O)c1ccccc1F)OCc1cc(=O)n2nc(C3CC3)sc2n1
COc1cc(OC)cc(C(=O)Nc2ccc3c(c2)OCCO3)c1
COc1ccccc1CN1CCN(C2CCN(C(=O)Nc3ccccc3)CC2)C(=O)C1=O
Cc1ccccc1NC(=O)CCNC(=O)Cn1ccc2ccccc2c1=O
Cc1ccc(CNC(=O)c2ccc3c(c2)nc2n3CCCC2)cc1
Cc1cc(C)n(-c2nc(C)c(C)c(=O)n2CC(=O)Nc2ccc(Cl)c(Cl)c2)n1
COc1cccc(NC(=O)c2nnn(Cc3ccc(OC)c(Br)c3)c2N)c1
COc1ccc(CNC(=O)C2CCN(S(=O)(=O)c3ccc4nc5c(c(C(=O)O)c4c3)CC(C)CC5)CC2)cc1 (centres undefined)
CC(C)CC(=O)Nc1nnc2n1CCS2
COc1ccc(-c2cc(-c3ccccc3)nc3c2COc2ccccc2-3)cc1
CCCn1cc(S(=O)(=O)c2cc(C)ccc2C)c(=O)c2cc(F)c(N3CCCCCC3)cc21
COC(=O)c1c(NC(=O)c2nc(SC)ncc2Cl)sc2c1CCCC2
CCOc1ccc(CCNC(=O)c2cc3c(=O)n(C)c4ccccc4c3n2C)cc1
CCOC(=O)c1cc(NC(=O)c2ccc(OC)cc2)c(=O)n2c1oc1ccc(Cl)cc12
C=C(C)Cn1c(SCC(=O)Nc2cccc(Cl)c2)nc2sc3c(c2c1=O)CCCC3
Cc1ccc(NC(=O)CC2Sc3ccccc3NC2=O)c(Br)c1 (centres undefined)
CCc1cccc(NC(=O)CC2Oc3ccc(C)cc3NC2=O)c1 (centres undefined)
CCOC(=O)c1cccc(NC(=O)c2cnc(N3CCCCC3)c3ccccc23)c1
CCN(CC)S(=O)(=O)c1ccc2c(c1)N(CC(=O)Nc1c(C)cc(C)cc1C)C(=O)C1CCCN21 (centres undefined)
Cc1ccc(CNC(=O)CN2CCCN(Cc3ccc(F)cc3)S2(=O)=O)cc1

Activity change, negative = inhibition, inactive:
CCOC(=O)c1cccc(NC(=O)CSc2nc3cc4ccccc4cc3[nH]2)c1 9.19%
CCC(=O)N1CCc2cc(CNC(=O)c3ccc(C#N)cc3)ccc21 -3.8%
CC(NC(=O)c1cc2ccccc2o1)c1ccccc1 (centres undefined) 15.3%
NC(=O)C1CCCc2c1[nH]c1ccc(Cl)cc21 (centres undefined) -16.8%
CCc1ccc(S(=O)(=O)c2cn(C)c3cc(F)c(F)cc3c2=O)cc1 -4.83%
Cc1ccc(NC(=O)Cn2c(-c3nonc3N)nc3ccccc32)cc1C 1.01%
COc1ccc(-c2nc3sc(CCNC(=O)C(=O)Nc4ccc(C)c(F)c4)c(C)n3n2)cc1 -5.28%
CCCn1nc(NC(=O)c2cccc(Cl)c2)c2cc3cccc(C)c3nc21 -28.9%
CCOC(=O)c1c(C)[nH]c(C)c1S(=O)(=O)N1CCCC(C(=O)Nc2cccc(C)n2)C1 (centres undefined) 11.5%
CCOc1ccc(NC(=O)CSC2=Nc3ccccc3C3=NC(Cc4ccccc4)C(=O)N23)cc1 (centres undefined) 3.2%
CCOC(=O)c1ccc(NC(=O)CC2C(=O)N(c3ccc(C)cc3)C(=O)N2C2CCCC2)cc1 (centres undefined) -7.49%
COc1ccccc1N1CCN(S(=O)(=O)CCNC(=O)C2CC(=O)N(c3ccccc3)C2)CC1 (centres undefined) 2.38%
COc1cc(NC(=O)c2cc3ccc4cccnc4c3[nH]2)cc(OC)c1OC 4.8%
CC(C)(C)C(=O)Nc1cccc(C(=O)OCc2cc(=O)n3nc(C4CC4)sc3n2)c1 10.2%
CC(Nc1ccc(-c2nc(-c3ccco3)no2)cc1[N+](=O)[O-])c1ccccc1 (centres undefined) 12.1%
Cc1ccc(NC(=O)N2CCN(Cc3nc4ccc(C)cc4o3)CC2)c(Cl)c1 4.1%
O=C1CN(C(=O)COc2ccc(Cl)cc2)C(c2ccc(F)cc2)c2cc(Br)ccc2N1 (centres undefined) -15.8%
CCS(=O)(=O)c1nc(S(=O)(=O)c2ccc(C)cc2)c(NCC(C)C)s1 -3.38%
CCOC(=O)N1CCc2c(sc(NCc3sccc3C)c2C(=O)Nc2cc(Cl)ccc2OC)C1 4.14%
COC(=O)CN1C(=O)CSc2ccc(S(=O)(=O)Nc3c(C)cc(C)cc3C)cc21 10.3%
CCOC(=O)c1ccc(NC(=O)CSc2nc(-c3cccs3)cc(C(F)(F)F)c2C#N)cc1 -0.519%
Cc1ccc(CNc2ncnc3c2cnn3-c2ccc(C)cc2C)cc1 -14.4%
CC(=O)Nc1ccc(NC(=O)c2c(C)nn(-c3ccccc3)c2-n2cccc2)cc1 14.8%
Cc1cc(C)c(NC(=O)Cn2nnc(C(=O)Nc3ccc(F)cc3F)c2N)c(C)c1 -8.25%
COc1ccc(-c2cc(OC(=O)c3cccc(C)c3)c3c(C)oc(C)c3c(=O)c2)cc1 3.57%
COc1ccc(-c2nnc(SCC(=O)Nc3cccc(Cl)c3C)nc2-c2ccc(OC)cc2)cc1 5.25%
COc1ccc(NC(=O)CCNS(=O)(=O)c2ccc3c(c2)CCN3C(=O)C2CC2)cc1Cl -25.4%
CCn1cc(C(=O)NCc2ccccc2OC)c(=O)c2cc(S(=O)(=O)N3CCCCCC3)ccc21 -2.5%
CCc1nn2c(=O)cc(COC(=O)C3CCCCC3)nc2s1 21.3%
CCc1ccc(NC(=O)C2CCCN(S(=O)(=O)c3cccc4nonc34)C2)cc1 (centres undefined) -7.08%
CCOc1ccc(NC(=O)Cn2cnc3c(oc4ccccc43)c2=O)cc1 6.84%
COc1cccc(-c2cc(C(=O)N3CCN(c4ccc(F)cc4)CC3)no2)c1 0.907%
COc1cccc(NS(=O)(=O)c2cc3c4c(c2)C(C)C(=O)N4CCC3)c1 (centres undefined) 18.8%
Cc1ccsc1CCN1C(=O)N(c2ccc(F)cc2)C(=O)C1CC(=O)Nc1ccccc1 (centres undefined) -1.86%
COc1cc(-c2noc(C3CC(=O)N(c4cc(C)ccc4C)C3)n2)cc(OC)c1OC (centres undefined) -0.136%
CN1C(=O)Cc2cc(S(=O)(=O)CCC(=O)N3CCN(c4cccc(Cl)c4)CC3)ccc21 9.84%
CCc1ccc(NC(=O)c2c(C(=O)Nc3ccccc3)sc3nc(C)cc(=O)n23)cc1 -29.2%
COC(=O)[C@H](Cc1ccccc1)NC(=O)[C@@H](N)CC(=O)O (HELM PEPTIDE1{D.F.[CO[*:1]]}$$$$V2.0) -8.58%
Cc1ccc2c(=O)cc(C(=O)Nc3c(C(=O)c4ccccc4)oc4ccccc34)oc2c1C 6.79%
CCC(C)NC(=O)c1ccc2c(c1)N=C(C)c1cc(C)ccc1S2 (centres undefined) -1.32%
Cc1cc(C)c2c(=O)cc(C(=O)Nc3ccc(S(=O)(=O)Nc4onc(C)c4C)cc3)oc2c1 -2.37%
COc1ccc2c(c1)c1c(c(=O)n(-c3cccc(C)c3)c(=O)n1CC(=O)N1CCCC1)n2C 9.04%
CC(C)(C)OC(=O)N1CCC(c2c(C(=O)NCc3ccccn3)cnn2-c2ccc(F)cc2)CC1 1.26%
COc1cccc(NC(=O)C(=O)NCCc2csc3nc(-c4ccccc4C)nn23)c1 0.329%
CCc1ccccc1N(c1nc(-c2ccc(OC)c(OC)c2)no1)c1nc(-c2ccc(OC)c(OC)c2)no1 -8.17%
COc1ccc(-n2nnc(C(=O)Nc3ccccc3F)c2N)cc1 -25%
CCOc1ccc(NCc2cccn2-c2nnc(N3CCC(C(=O)NCc4cccc(OC)c4)CC3)s2)cc1 -38.4%
CCN1C(=O)c2ccccc2Sc2ccc(NC(=O)Cc3ccc(OC)cc3)cc21 -4.65%
Cc1oc(-c2cccc(Cl)c2)nc1CSc1nnc(C)n2c1cc1occc12 7.88%
CC(=O)[C@]1(O)Cc2c(O)c3c(c(O)c2[C@@H](O[C@H]2C[C@H](N)[C@@H](O)[C@H](C)O2)C1)C(=O)c1ccccc1C3=O 4.73%
Cc1nc2c(-c3ccc(F)cc3)c(C)nn2c(C)c1CCC(=O)N1CCN(c2ccc(F)cc2)CC1 6.77%
Cc1cccc(CCNC(=O)c2ccc3c(c2)nc2n3CCCCC2)c1 0.502%
Cc1ccc(Cc2nc3ccccc3nc2SCC(=O)NCCc2ccccc2)cc1 -1.84%
CC(=O)c1cc(-c2ccccc2)n(CCC(=O)NCCc2ccccc2)c1C -2.51%
CC(=O)NCc1nc2cccnc2n1Cc1ccccc1 -4.1%
COc1ccc(Cl)cc1N(C)C(=O)Cc1noc2ccc(C)cc12 -8.79%
COc1ccccc1N1CCN(C(=O)Cn2cnc3sc(C)c(S(=O)(=O)N4CCC(C)CC4)c3c2=O)CC1 7.39%
CCc1cccc(C)c1NC(=O)Cn1c(=O)n(-c2cccc(C)c2)c(=O)c2c1c1cc(C)ccc1n2C -3.52%
O=C(CCc1ccccc1)NCc1ccc2c(c1)CCN2C(=O)c1ccc(Cl)cc1 8.87%
O=c1[nH]c2ccc(NCc3ccccc3F)cc2[nH]1 1.3%
CC1Cc2ccccc2N1C(=O)CSc1nnc(-c2cccc(Cl)c2)o1 (centres undefined) 2.87%
CCn1c(CNC(=O)C23CC4CC(CC(C4)C2)C3)nnc1SCC(=O)Nc1ccc(F)cc1 13.6%
O=C(NCCS(=O)(=O)N1CCN(c2cccc(Cl)c2)CC1)c1cc(=O)c2ccccc2o1 8.16%
CCOc1ccc(NC(=O)Cn2cc(C(=O)c3ccc(CC)cc3)c(=O)c3ccc(C)nc32)cc1 5.57%
N#Cc1c(N(CC(=O)O)CC(=O)O)sc(C(=O)O)c1CC(=O)O -6.35%
COc1ccc(-n2c(=O)c3c(c4cc(OC)ccc4n3C)n(C)c2=O)cc1 -5.97%
O=C(NCCC1=CCCCC1)c1ccc2c(c1)N(Cc1ccc(Cl)cc1)C(=O)c1ccccc1S2=O (centres undefined) 9.54%
CC1=C(c2ccc(C)c(C)c2)S(=O)(=O)N=C1N1CCC(C(=O)NCc2ccc(Cl)cc2)CC1 3.44%
COc1ccc(NC(=O)CSc2nccn2Cc2ccco2)cc1OC 1.79%
O=C(COc1ccccc1F)Nc1ccc(Cl)c(-c2nc3ccccc3[nH]2)c1 -9.98%
Cc1cc(C)c(/C=C/c2onc(C)c2S(=O)(=O)N2CCC(C(=O)Nc3ccc(Cl)c(C(F)(F)F)c3)CC2)c(C)c1 -5.21%
CCOC(=O)C1=C(C)NC(=S)NC1c1cccc(O)c1 (centres undefined) 4.37%
